From the supplement of paper PMC9151546
Repeats are few or missing, and single values can be far off.

Columns and labels:
CHO-K1 [1] = assay: relative survival (nuclei to bead ratio vs DMSO control) (% of vehicle control); higher = more surviving cells
Method: (§1)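 Flow-cytometric in vitro micronucleus assay (Litron MicroFlow) in CHO-K1 cells in 96-well plates, 19 concentrations (4.5-200 µM, n=1 per concentration). Without S9, cells were exposed for 24 h and sampled at 48 h. With Aroclor 1254-induced rat liver S9, cells were exposed for 3-4 h and sampled at 27-28 h. Read-outs are %MN and %hypodiploid nuclei relative to nucleated events, and relative survival as the nuclei-to-bead ratio versus the 1% DMSO vehicle control (x100).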

CHO-K1 [2] = assay: hypodiploid nuclei frequency (% of nucleated events); higher = more hypodiploid events (aneugenic)
Method: as §1

CHO-K1 [3] = assay: micronucleus frequency (% of nucleated events); higher = more micronuclei (genotoxic)
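Throughout, for hypodiploid nuclei frequency (% of nucleated events): hypodiploid nuclei gated on a flow cytometer with 488 nm excitation after SYTOX Green staining, cultures at 37 °C, positive controls vinblastine without S9 and cyclophosphamide with S9.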
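Throughout, for micronucleus frequency (% of nucleated events): cells lysed with nuclei stained by SYTOX Green, then micronucleus-gated events counted against nucleated events by flow cytometry with 488 nm excitation.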
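Throughout, for relative survival (nuclei to bead ratio vs DMSO control): Lysed-cell nuclei stained with SYTOX Green and counted against counting beads by flow cytometry at 488 nm excitation, with vinblastine (no S9) and cyclophosphamide (plus S9) as positive controls.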

Cn1cnc([N+](=O)[O-])c1Sc1ncnc2[nH]cnc12 [Azathioprine]
Settings	hypodiploid nuclei frequency, CHO-K1 [2] [%]	micronucleus frequency, CHO-K1 [3] [%]	relative survival, CHO-K1 [1]
concentration: 4.48 (µM), S9 metabolic activation: with S9, exposure time: 3-4 hours	0.36	1.16	101
concentration: 4.48 (µM), S9 metabolic activation: without S9, exposure time: 24 hours	1.4	1.68	132
concentration: 5.6 (µM), S9 metabolic activation: with S9, exposure time: 3-4 hours	0.26	0.96	113
concentration: 5.6 (µM), S9 metabolic activation: without S9, exposure time: 24 hours	0.98	1.56	98.7
concentration: 7 (µM), S9 metabolic activation: with S9, exposure time: 3-4 hours	0.3	1.32	96.3
concentration: 7 (µM), S9 metabolic activation: without S9, exposure time: 24 hours	1.34	1.6	99.4
concentration: 8.75 (µM), S9 metabolic activation: with S9, exposure time: 3-4 hours	0.36	1.48	104
concentration: 8.75 (µM), S9 metabolic activation: without S9, exposure time: 24 hours	1.08	1.3	109
concentration: 10.9 (µM), S9 metabolic activation: with S9, exposure time: 3-4 hours	0.32	1.16	100
concentration: 10.9 (µM), S9 metabolic activation: without S9, exposure time: 24 hours	1.14	1.78	105
concentration: 13.7 (µM), S9 metabolic activation: with S9, exposure time: 3-4 hours	0.5	1.54	77.8
concentration: 13.7 (µM), S9 metabolic activation: without S9, exposure time: 24 hours	0.66	1.98	117
concentration: 17.1 (µM), S9 metabolic activation: with S9, exposure time: 3-4 hours	0.28	2.22	85.1
concentration: 17.1 (µM), S9 metabolic activation: without S9, exposure time: 24 hours	0.86	1.9	112
concentration: 21.4 (µM), S9 metabolic activation: with S9, exposure time: 3-4 hours	0.4	2.06	95.2
concentration: 21.4 (µM), S9 metabolic activation: without S9, exposure time: 24 hours	1.14	2.06	96.3
concentration: 26.7 (µM), S9 metabolic activation: with S9, exposure time: 3-4 hours	0.38	1.62	110
concentration: 26.7 (µM), S9 metabolic activation: without S9, exposure time: 24 hours	0.98	1.96	94.6
concentration: 33.4 (µM), S9 metabolic activation: with S9, exposure time: 3-4 hours	0.32	1.2	119
concentration: 33.4 (µM), S9 metabolic activation: without S9, exposure time: 24 hours	1.42	2.02	98.7
concentration: 41.7 (µM), S9 metabolic activation: with S9, exposure time: 3-4 hours	0.46	1.12	99
concentration: 41.7 (µM), S9 metabolic activation: without S9, exposure time: 24 hours	1.34	1.92	121
concentration: 52.2 (µM), S9 metabolic activation: with S9, exposure time: 3-4 hours	0.36	1.3	107
concentration: 52.2 (µM), S9 metabolic activation: without S9, exposure time: 24 hours	1.7	1.86	93.5
concentration: 65.2 (µM), S9 metabolic activation: with S9, exposure time: 3-4 hours	0.38	1.28	88.8
concentration: 65.2 (µM), S9 metabolic activation: without S9, exposure time: 24 hours	1.66	1.88	98.7
concentration: 81.5 (µM), S9 metabolic activation: with S9, exposure time: 3-4 hours	0.28	1.42	82.7
concentration: 81.5 (µM), S9 metabolic activation: without S9, exposure time: 24 hours	1.58	1.98	98.7
concentration: 102 (µM), S9 metabolic activation: with S9, exposure time: 3-4 hours	0.32	1.86	71.1
concentration: 102 (µM), S9 metabolic activation: without S9, exposure time: 24 hours	1.76	2.56	90.2
concentration: 127 (µM), S9 metabolic activation: with S9, exposure time: 3-4 hours	0.49	1.61	79.4
concentration: 127 (µM), S9 metabolic activation: without S9, exposure time: 24 hours	1.76	1.88	78.1
concentration: 159 (µM), S9 metabolic activation: with S9, exposure time: 3-4 hours	0.63	1.73	79.5
concentration: 159 (µM), S9 metabolic activation: without S9, exposure time: 24 hours	1.98	2.78	78.1
concentration: 199 (µM), S9 metabolic activation: with S9, exposure time: 3-4 hours	0.57	2.58	68.2
concentration: 199 (µM), S9 metabolic activation: without S9, exposure time: 24 hours	2.58	2.54	65.4
